Screen size: about 220,000 compounds; about 16,000 (7.3%) were called active. The shares of active, inactive and inconclusive entries below differ from those in the screen. Calls come from the whole dose curve; as a rule, active = well fitted inhibition curve with a large enough effect (not every such curve was filed as active); inconclusive = small, poorly fitted or top-dose-only effect, or another doubt; inactive = no such curve, though single readings can be large or run the other way. Potencies of inconclusive entries are left out as doubtful fits.
Each compound was assayed against Aldehyde dehydrogenase 1A1 (Homo sapiens) (UniProt P00352) (assay: qHTS Assay for Inhibitors of Aldehyde Dehydrogenase 1 (ALDH1A1)). Conditions: Purified ALDH1A1, NADH fluorescence, propionaldehyde substrate; series mostly up to 75.3 µM; activity, negative = inhibition: at the top concentration.
Potency is the fitted concentration of half-maximal effect; tags give direction and shape of the fitted curve.
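Throughout, for activity, negative = inhibition: plate controls were no enzyme wells and a reference inhibitor.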

Sequence of UniProt P00352 (P00352 whole entry, looked up): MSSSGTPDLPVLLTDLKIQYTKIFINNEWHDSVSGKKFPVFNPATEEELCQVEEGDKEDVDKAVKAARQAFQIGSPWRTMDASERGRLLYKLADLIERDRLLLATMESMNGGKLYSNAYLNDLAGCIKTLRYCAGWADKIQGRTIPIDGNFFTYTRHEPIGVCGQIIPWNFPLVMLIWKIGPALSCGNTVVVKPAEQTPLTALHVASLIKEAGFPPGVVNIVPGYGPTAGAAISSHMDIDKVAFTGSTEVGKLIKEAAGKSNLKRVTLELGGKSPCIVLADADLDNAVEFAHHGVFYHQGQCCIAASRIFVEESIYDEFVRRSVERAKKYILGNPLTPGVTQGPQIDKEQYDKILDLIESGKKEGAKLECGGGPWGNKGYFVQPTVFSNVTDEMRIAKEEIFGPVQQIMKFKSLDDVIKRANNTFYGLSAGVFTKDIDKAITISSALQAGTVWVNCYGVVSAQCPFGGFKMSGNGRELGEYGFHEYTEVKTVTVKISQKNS

Structure (SMILES) | Potency | activity, negative = inhibition
O=C(CSc1nnc(-c2ccccc2)c(-c2ccccc2)n1)Nc1ncc(Cl)cc1Cl | inconclusive [inhibitor, single point] | –
CCNc1oc(-c2cccc3ccccc23)nc1C#N | inconclusive [inhibitor, partial curve] | –
COCCCNC(=S)Nc1cccc(S(=O)(=O)NC2=NCCC2)c1 | – | inactive: -4.11%
C=CCN1C(=O)/C(=c2\sc3nc(=O)c(Cc4ccccc4)nn3c2=O)c2ccccc21 | active: 3.55 µM | –
O=C(/C=C/c1ccc(O)c(O)c1)OC1C[C@](O)(C(=O)O)C[C@@H](O)[C@H]1O (some centres undefined) | active: 23.8 µM | –
COc1ccc2c(=O)c(C(=O)O)c(-c3ccc4c(c3)OCO4)n(C)c2c1 | inconclusive [inhibitor, single point] | –
CC1=NN(c2ccc(C(=O)OC(C)C)cc2)C(=O)/C1=C\C=C\c1ccco1 | inconclusive [inhibitor, single point] | –
COc1ccc(C(C)=O)cc1CSc1nc2cc(Cl)ccc2o1 | active: 25.1 µM | –
CCOc1cc(/C=C2/SC(=Nc3ccccc3)N(Cc3cccnc3)C2=O)ccc1OCC#N | inconclusive [inhibitor, partial curve] | –
Cc1nc2ccccn2c1C(=O)NNS(=O)(=O)c1ccc(Cl)cc1 | active: 8.91 µM | –
C/C(=N\Nc1nc(C)cc(=O)[nH]1)C1CC1 | inconclusive [inhibitor, single point] | –
Cc1[nH]c(=O)[nH]c(=O)c1S(=O)(=O)NCC12CC3CC(CC(C3)C1)C2 | inconclusive [inhibitor, partial curve] | –
CCN(c1ccc(NC(=O)COC(=O)c2ccc3ccccc3n2)cc1)C(C)C | inconclusive [inhibitor, single point] | –
O=C(O)c1ccc(CNC(=O)c2ccc(Br)o2)cc1 | – | inactive: -0.0512%
Nc1nnc(CSCc2ccc(F)cc2)s1 | active: 10 µM | –
COC(=O)c1c(NC(=O)COC(=O)c2ccc(Cl)cc2[N+](=O)[O-])sc2c1CCCCC2 | – | inactive: 0.675%
COC(=O)c1c(-c2ccccc2)csc1NC(=O)C1CC=CCC1C(=O)O (centres undefined) | inconclusive [inhibitor, single point] | –
COc1ccc(S(=O)(=O)Nc2cc(C)ccn2)cc1 | inconclusive [inhibitor, partial curve] | –
CN1/C(=C\C(=O)CSc2nncn2C)C(C)(C)c2ccccc21 | inconclusive [inhibitor, single point] | –
CCOc1ccc2nc(SC3CC(=O)N(c4cccc(OC)c4)C3=O)sc2c1 (centres undefined) | active: 20 µM | –
CCOc1ccccc1NC(=O)CSc1nnc(-c2ccccn2)n1Cc1ccco1 | inconclusive [inhibitor, single point] | –
CCN(CC)c1ccc(C(=O)N/N=C(\C)c2ccc(OC)c(OC)c2)cc1 | inconclusive [inhibitor, single point] | –
COc1ccc(N2C(=O)CC(NC3CCCCNC3=O)C2=O)cc1 (centres undefined) | active: 20 µM | –
CC(C)C[C@@H](NC(=O)OCC1c2ccccc2-c2ccccc21)C(=O)O | active: 12.6 µM | –
Cc1ccc(C)c(C(=O)CSc2n[nH]c(C)n2)c1 | inconclusive [inhibitor, single point] | –

Structure (SMILES) | Potency | activity, negative = inhibition
COCCCNc1nc2ccccc2nc1NS(=O)(=O)c1ccccc1 | inconclusive [inhibitor, single point] | –
Fc1ccc(Oc2nnnn2-c2ccccc2)cc1 | inconclusive [inhibitor, single point] | –
Cc1cc(C)c(NC(=O)C2CCCN2CCOC(=O)c2ccccc2)c(C)c1 (centres undefined) | inconclusive [inhibitor, single point] | –
CC1(C)CC(=NO)CC(C)(C)N1 | – | inactive: 18%
COc1ccc(NC(=O)C2(c3ccc(NC(=O)c4ccc(C)cc4)cc3)CCCC2)cc1 | – | inactive: -8.27%
CC(C)NC(=O)Cn1c(SCC(=O)N2CCCCCC2)nc2ccccc21 | inconclusive [inhibitor, single point] | –
COc1ccc(Oc2ncc3ncc(=O)n(Cc4cccs4)c3n2)cc1 | inconclusive [inhibitor, single point] | –
COC(=O)N1CCC2(CCN(C(=O)Nc3cccc(F)c3)CC2)CC1 | – | inactive: 12.4%
CCOC(=O)CN1C(=O)CCSc2ccc(Cl)cc21 | – | inactive: 5.12%
CC(C)OC(=O)CSc1nnc(COc2ccc([N+](=O)[O-])cc2)n1C | – | inactive: -2%
COc1ncc2nc(-c3cccs3)c(=O)n(Cc3cccs3)c2n1 | inconclusive [inhibitor, partial curve] | –
C/C(=N/NC(=O)c1ccc(Cl)s1)c1ccc(NC(=O)COc2ccc(Cl)cc2)cc1 | inconclusive [inhibitor, single point] | –
COc1ccc(COC(=O)NNC(=O)c2ccc(OC)cc2)cc1 | inconclusive [inhibitor, partial curve] | –
O=c1[nH]c2ccc(NC(=S)Nc3ccccc3)cc2[nH]1 | inconclusive [inhibitor, single point] | –
CC(=O)c1cc(-c2ccccc2)[nH]c1N1CCOCC1 | inconclusive [inhibitor, single point] | –
O=C(Cc1nc2ccccc2[nH]1)NCc1ccco1 | inconclusive [inhibitor, single point] | –
Cc1cc(C)n2nc3ccccc3c2n1 | – | inactive: -3.19%
COc1cc(NS(=O)(=O)c2ccc(NC(=O)c3ccco3)cc2)nc(OC)n1 | – | inactive: 1.65%
CC(=O)c1sc2nc(-c3cccs3)cc(C(F)(F)F)c2c1N | inconclusive [inhibitor, single point] | –
O=C(c1cccn2c(=O)c3ccccc3nc12)N1CCN(Cc2ccc3c(c2)OCO3)CC1 | inconclusive [inhibitor, partial curve] | –
C=CCNC(=S)NCc1cccnc1 | – | inactive: 7.88%
O=C(Nc1ccc(NC(=O)C2CCCCC2)nc1)c1ccccn1 | inconclusive [inhibitor, partial curve] | –
FC(F)(F)c1cccc(NC(=S)NCc2ccccc2)c1 | – | inactive: 6.99%
COc1ccc(C)cc1NC(=O)CNc1ccccc1CN(C)C1CCCCC1 | active: 20 µM | –
O=C(NCCc1ccccc1)c1ccc(-c2ccccc2Cl)o1 | inconclusive [inhibitor, single point] | –

Structure (SMILES) | Potency | activity, negative = inhibition
O=[N+]([O-])c1ccccc1/C=C/C=N/n1c(-c2ccc(Cl)cc2)n[nH]c1=S | inconclusive [inhibitor, partial curve] | –
Cc1ccc(NC(=O)CCSCCC(=O)Nc2ccc(C)c(C)c2)cc1C | active: 17.8 µM | –
O=C(c1ccc2nc(N3CCOCC3)sc2c1)N1CCCC1 | – | inactive: 5.35%
CCOC(=O)N1CCN(C(=O)c2cc3c(=O)n(C)c4ccccc4c3n2C)CC1 | – | inactive: 2.1%
Cc1ccc(CNC(=O)C2CC(c3cccc([N+](=O)[O-])c3)=NO2)o1 (centres undefined) | inconclusive [inhibitor, single point] | –
CC(C)C(=O)NC(NC(=S)Nc1ccc(S(N)(=O)=O)cc1)C(Cl)(Cl)Cl (centres undefined) | inconclusive [inhibitor, single point] | –
FC(F)Oc1ccccc1/C=N/n1cnc2ccccc21 | – | inactive: -11.9%
CCCNC(=O)OCCC12CC3CC(CC(C3)C1)C2 | inconclusive [inhibitor, partial curve] | –
CCOC(=O)CCSCC(=O)N1N=C(c2cccs2)CC1c1ccc(C)cc1 (centres undefined) | inconclusive [inhibitor, partial curve] | –
Cc1ccc(-n2nnnc2SCCNS(=O)(=O)c2ccccc2)cc1C | active: 5.01 µM | –
O=C(c1cnn2c(C(F)(F)F)cc(-c3ccco3)nc12)N1CCCCCC1 | inconclusive [inhibitor, partial curve] | –
CCOC(=O)Nc1ccc2c(CN3C(=O)NC4(CCCC4)C3=O)cc(=O)oc2c1 | inconclusive [inhibitor, partial curve] | –
N#Cc1cccc(CS(=O)(=O)c2ccccc2)c1 | – | inactive: 4.03%
CCOC(=O)c1c(C)cc(OC)cc1O | – | inactive: -12.7%
Cc1ccc2c(=O)cc(C(F)F)oc2c1 | inconclusive [inhibitor, single point] | –
Nc1cc(C(F)(F)F)ccc1Nc1ccccc1 | inconclusive [inhibitor, single point] | –
O=C(O)CCC(=O)CCC(=O)c1ccccc1 | inconclusive [inhibitor, single point] | –
O=C(O)CC1S/C(=N/N=C/c2ccc([N+](=O)[O-])cc2)N(c2ccc(O)cc2)C1=O (centres undefined) | inconclusive [inhibitor, single point] | –
CCOc1cc(/C=N/NC(=O)CSc2nncn2C)ccc1OCc1ccccc1 | – | inactive: -5.83%
Cc1ccc(C)c(S(=O)(=O)Nc2ccccc2C(=O)Nc2ccccc2N2CCOCC2)c1 | inconclusive [inhibitor, single point] | –
O=C(NCCOC(=O)c1ccc(Cl)c(S(=O)(=O)N2CCCCC2)c1)c1ccncc1 | inconclusive [inhibitor, single point] | –
CC1=NNC(=O)/C1=C\c1cn(-c2ccccc2)nc1-c1cccs1 | inconclusive [inhibitor, partial curve, poor fit] | –
CC(C)NC(=S)NC(=O)/C=C/c1ccc(F)cc1 | – | inactive: 5.14%
Cc1nn(-c2ccccc2)c2sc(C(=O)N(CC(=O)NC3CCCC3)Cc3ccco3)cc12 | inconclusive [inhibitor, full curve] | –
